Reference: PubChem BioAssay AID624296 (National Center for Advancing Translational Sciences (NCATS), 2012)
Screen size: about 350,000 compounds; about 9,900 (2.8%) were called active. The inconclusive results got no clear call from the source; some entries with a clear call stand among them for comparison. The call rests on the fitted dose curve; in most records, active means well fitted activation curve with a large enough effect; inconclusive means small, poorly fitted or top-dose-only effect; inactive means no such curve, though single readings can be large or run the other way. No potency is given beside an inconclusive call; the fits are too rough.

experiment: A quantitative high throughput screen for small molecules that induce DNA re-replication in MCF 10a normal breast cells.; further: nearly all actives have a fitted effect of over 50% in size; details: MCF 10A DNA re-replication, Hoechst nuclear intensity, 48 h; series mostly up to 46.1 µM
Potency means the concentration at half of the fitted maximal effect; tags describe the fitted curve by direction and shape.

| Compound | Potency |
| --- | --- |
| O=C1C=C(c2ccc3[nH]ccc3c2)C[C@@H](c2ccc(Cl)cc2)C1 | active: 10.3 µM |
| O/N=C/c1ccc(OCc2ccccc2F)c(Cl)c1 | inconclusive [activator, single point] |
| CC1(C)CC2(CC(c3ccccc3)Oc3cc(O)ccc32)NC(=S)N1 (configuration not stated) | inactive |
| COc1ccc(C(=O)Nc2cc3c(cc2N2CCCCC2)n(C)c(=O)n3C)cc1OC | inconclusive [activator, partial curve, poor fit] |
| COc1ccc(N=C2SC(CC(=O)Nc3ccccc3)C(=O)N2Cc2ccccn2)cc1 (configuration not stated) | inactive |
| O=C(Cc1ccccc1)NNC(=S)NC(=O)c1cccs1 | inactive |
| Cc1ccc2[nH]c(=O)c(CN(Cc3ccc4c(c3)OCO4)Cc3nnnn3C3CCCC3)cc2c1 | inconclusive [activator, partial curve, poor fit] |
| O=C(/C=C/c1c(Cl)cccc1Cl)n1cccn1 | inconclusive [activator, single point] |
| O=S(=O)(NCc1c(Cl)cccc1Oc1ccccc1)c1ccc(F)cc1 | inconclusive [activator, single point] |
| CCOC(=O)Cc1csc(NC(=O)c2ccc(S(=O)(=O)N3CCOCC3)cc2)n1 | inactive |
| Cc1[nH]nc2c1C(C1CC=CCC1)C(C#N)=C(N)O2 (configuration not stated) | inconclusive [activator, single point] |
| CC1CCN(CCOCCOc2ccccc2-c2ccccc2)CC1 | inconclusive [activator, full curve, poor fit] |
| CC(=O)Nc1cccc(OCc2cccc([N+](=O)[O-])c2)c1 | inactive |
| Cc1cn(C(=O)c2ccccc2)c(=S)n1-c1ccc(Br)cc1 | inconclusive [activator, single point] |
| CCOC(=O)c1ccc(NC(=O)c2nc(SC)ncc2Cl)cc1 | inactive |
| O=C(CCCN1C(=O)c2cccc3cccc(c23)C1=O)N1CCc2ccccc2C1 | inconclusive [activator, single point] |
| COc1ccc(-c2c(-c3cc(OC)cc(OC)c3)n(C)c3ccc(-c4ccc5[nH]ccc5c4)cc23)cc1 | inconclusive [activator, partial curve, poor fit] |
| NC(=O)CC(NC(=O)c1ccc(Br)cc1)c1ccc(NCc2ccc(F)cc2)c([N+](=O)[O-])c1 (configuration not stated) | inconclusive [activator, single point] |
| COc1ccc(NC(=S)N2CCN(C(c3ccccc3)c3ccccc3)CC2)cc1OC | inconclusive [activator, partial curve, poor fit] |
| Cc1nc(C)c(C(=O)OCC(=O)NCc2ccccc2)s1 | inactive |
| Cc1ccc(-c2noc(-c3ccccc3C(=O)NCc3ccco3)n2)cc1 | inconclusive [activator, partial curve, poor fit] |
| CCc1nnc(NC(=O)C2c3ccccc3Oc3ccccc32)s1 | inconclusive [activator, partial curve, poor fit] |
| CCCn1nnc(NC(=S)NC(=O)/C=C/c2ccco2)n1 | inconclusive [activator, full curve, poor fit] |

| Compound | Potency |
| --- | --- |
| Cc1ccc(-c2ccc(=O)n(CCC(=O)N3CCN(c4cccc(C)c4)C(C)C3)n2)cc1 (configuration not stated) | inactive |
| CC1(C)Cc2c(sc(NC(=O)COc3ccc(Cl)cc3Cl)c2C(N)=O)C(C)(C)N1 | active: 23.1 µM |
| CCc1ccc(CNc2ccc3c(c2)ncn3C(C)(C)C)cc1 | inconclusive [activator, single point] |
| CCn1c(=O)c(C(=O)NC(C)c2ccccc2)c(O)c2ccccc21 (configuration not stated) | inactive |
| CC(C)CC(C(=O)O)N1C(=O)C2C3C=CC(C2C1=O)C1C(=O)N(C(CC(C)C)C(=O)O)C(=O)C31 (configuration not stated) | inactive |
| O=c1cc(-c2cccc3ccccc23)[nH][nH]1 | inconclusive [activator, single point] |
| COC(=O)[C@H]1[C@@H](C)N(Cc2ccccc2)C(=O)N[C@H]1c1ccccc1 | inconclusive [activator, single point] |
| CN(Cc1ccccc1)C(=O)COC(=O)c1cc(NS(=O)(=O)c2cccs2)ccc1O | inactive |
| CCc1cc(=O)oc2cc(C)cc(O)c12 | inactive |
| CN1C(C(=O)NCc2ccc(OC(F)(F)F)cc2)CC2Cn3c(nc4cc(Cl)c(Cl)cc43)C21 (configuration not stated) | inconclusive [activator, partial curve, poor fit] |
| O=C(Nc1ccccc1Cc1ccccc1)c1ccccc1NS(=O)(=O)c1ccc(Cl)s1 | active: 9.2 µM |
| O=C(Nc1ccccc1N1CCOCC1)c1ccc(Br)o1 | inconclusive [activator, partial curve, poor fit] |
| Cc1ccc(C2(C)NC(=O)N(CC(=O)N3CCN(S(=O)(=O)c4cccc([N+](=O)[O-])c4)CC3)C2=O)cc1 (configuration not stated) | inconclusive [activator, single point] |
| Cc1cccc2sc(NC(=O)c3ccc(Cl)s3)nc12 | active: 16.4 µM |
| COc1cccc(OCCn2cc(C=O)c3ccccc32)c1 | inactive |
| COc1ccc(/C=N/N2CCN(c3ccc(Cl)cc3)CC2)cc1 | inconclusive [activator, single point] |
| CC1CN(S(=O)(=O)c2cccc3nsnc23)CC(C)O1 (configuration not stated) | active: 18.4 µM |
| Cc1cc(OCC(=O)NCC(c2cccs2)N2CCOCC2)ccc1C(C)C (configuration not stated) | inactive |
| COC(=O)[C@@]12CCCCN1[C@H](c1ccc(-c3cc(C(C)=O)cs3)cc1)[C@H]1C(=O)N(C)C(=O)[C@H]12 | inconclusive [activator, single point] |
| Cc1ccc(C)c(NS(=O)(=O)c2ccc(OCC(=O)N3CCCC3)cc2)c1 | inactive |
| Cc1ccccc1OCc1nc2ccccc2c(=O)n1/N=C/c1cn[nH]c1-c1ccccc1 | inconclusive [activator, partial curve] |
| Cc1cc(C(=O)OCC(=O)c2ccc(Cl)c([N+](=O)[O-])c2)c2cccc(C)c2n1 | inconclusive [activator, single point] |
| COc1ccccc1C(CNC(=O)c1ccc(NS(=O)(=O)c2ccc(C(C)=O)cc2)cc1)N1CCCC1 (configuration not stated) | inconclusive [activator, single point] |

| Compound | Potency |
| --- | --- |
| Cc1ccc2nc(SC(C)C(=O)NC3CCCC3)[nH]c2c1 (configuration not stated) | inconclusive [activator, single point] |
| CC(=O)Nc1sc(C)c(C)c1C(=O)OCC(=O)Nc1ccccc1 | inconclusive [activator, single point] |
| O=C(NCc1cccs1)Nc1cc(Cl)ccc1Cl | inconclusive [activator, full curve, poor fit] |
| Cc1ccc(C(=O)CSc2nnc3c4ccccc4nc(C(C)(C)C)n23)cc1 | active: 6.51 µM |
| COc1ccc2cc(/C=N/NC(=O)CSCc3ccc([N+](=O)[O-])cc3)c(Cl)nc2c1 | inconclusive [activator, single point] |
| O=C(CSC1=NCCS1)Nc1ccc(S(=O)(=O)N2CCCCCC2)cc1 | inconclusive [activator, partial curve] |
| Cc1nc2ccccc2c(=O)n1/N=C/c1ccc(O)cc1O | inactive |
| Cn1c(=O)cc(OCCCC(=O)NCc2ccc(F)cc2Cl)c2ccccc21 | inconclusive [activator, single point] |
| COc1ccccc1NC(=O)COc1cc(Br)c(CNCCCN2CCOCC2)cc1OC | inconclusive [activator, single point] |
| CC1CCN(S(=O)(=O)c2ccc(NC(=O)Cn3nnc(-c4ccccc4)n3)cc2)CC1 | inconclusive [activator, single point] |
| COc1cccc(CC(NC(C)=O)C(=O)NC2CCN(c3nnnn3-c3ccccc3)CC2)c1OC (configuration not stated) | inconclusive [activator, partial curve, poor fit] |
| Cn1c(=O)oc2cc(S(=O)(=O)CCC(=O)N3CCN(c4ccccc4F)CC3)ccc21 | inactive |
| CC(C)CC(=O)NC(=S)NNC(=O)c1ccc(NC(=O)C2CCCCC2)cc1 | inconclusive [activator, full curve, poor fit] |
| CC[C@H](C)[C@@H]1NC(=O)[C@H]([C@@H](C)CC)NC(=O)[C@@H](CC(C)C)NC(=O)[C@H](Cc2ccccc2)NC(=O)[C@H](Cc2ccccc2)NC(=O)[C@@H]2CCCN2C(=O)[C@@H]2CCCN2C(=O)[C@H](C(C)C)NC(=O)[C@H](CC(C)C)NC1=O | active: 20.6 µM |
| CCOC(=O)c1[nH]c(CSc2nnc(-c3ccc(OC)cc3)o2)c(C(=O)OCC)c1C | active: 16.4 µM |
| CCC(C)OC(=O)n1ccc(C(=O)Nc2nccs2)n1 (configuration not stated) | inconclusive [activator, single point] |
| c1coc(Cn2c(-c3ccco3)nc3ccccc32)c1 | inconclusive [activator, full curve, poor fit] |
| Cc1c(C(=O)N2CCCCC2)c(S(=O)(=O)N(C)Cc2ccccc2)c(C)n1C | inactive |
| Cc1nc(SCC(=O)NC2CCCCC2)[nH]c(=O)c1C | inconclusive [activator, single point] |
| CN1C(=O)N(C)C2(C)CC1(C)N(C)C(=O)N2C | inactive |
| O=C(Nc1ccc(Cc2ccncc2)cc1)c1ccc(Cl)c([N+](=O)[O-])c1 | inconclusive [activator, single point] |
